# From the supplement of paper PMC8728848
# The list shows a part of the results.
# B1: FaeGab (Escherichia coli) (protein)
# chain: WMTGDFNGSVDIGGSITADDYRQKWEWKVGTGLNGFGNVLNDLTNGGTKLTITVTGNKPILLGRTKEAFATPVSGGVDGIPQIAFTDYEGASVKLRNTDGETNKGLAYFVLPMKNAEGTKVGSVKVNASYAGVFGKGGVTSADGELFSLFADGLRAIFYGGLTTTVSGAALTSGSAAAARTELFGSLSRNDILGQIQRVNANITSLVDVAGSYREDMEYTDGTVVSAAYALGIANGQTIEATFNQAVTTSTQWSAPLNVAITYY
# Columns and labels:
# Test in all cases: glycan array binding signal (z-score within array); higher = stronger binding
# Conditions in all cases: glycan notation: IUPAC condensed, linker removed
# [1] = biological target: Neu5Ac(a2-8)Neu5Ac(a2-3)[GalNAc(b1-4)]Gal(b1-4)Glc
# How it was run: (§1)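 Glycan array data came from 3228 arrays in the Consortium for Functional Glycomics database, and only arrays with an available protein sequence were kept. Glycan names were put into IUPAC-condensed notation, and columns mapping to the same glycan were averaged. The binding signal is a within-array Z-score, averaged across arrays of one protein sequence run at different concentrations or buffers and across linkers. A negative Z-score can be read as non-binding.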
# [2] = biological target: Neu5Ac(a2-8)Neu5Ac(a2-8)Neu5Ac
# How it was run: as §1
# [3] = biological target: Neu5Ac(a2-8)Neu5Ac(a2-8)Neu5Ac(a2-3)Gal(b1-4)Glc
# How it was run: as §1
# [4] = biological target: Neu5Ac(a2-8)Neu5Ac(a2-8)Neu5Ac(a2-3)[GalNAc(b1-4)]Gal(b1-4)Glc
# How it was run: as §1
# [5] = biological target: Neu5Ac(a2-8)Neu5Ac(a2-8)Neu5Ac(a2-8)Neu5Ac(a2-3)[GalNAc(b1-4)]Gal(b1-4)Glc
# How it was run: as §1
# Neu5Ac(b1-6)GalNAc = biological target: Neu5Ac(b1-6)GalNAc
# How it was run: as §1
# [6] = biological target: Neu5Ac(b2-6)Gal(b1-4)GlcNAc
# How it was run: as §1
# [7] = biological target: Neu5Ac9Ac(a2-6)Gal(b1-4)GlcNAc
# How it was run: as §1
# [8] = biological target: Neu5Gc(a2-3)Gal(b1-3)GlcNAc
# How it was run: as §1
# [9] = biological target: Neu5Gc(a2-3)Gal(b1-3)[Fuc(a1-4)]GlcNAc
# How it was run: as §1
# Neu5Gc(a2-3)Gal(b1-4)Glc = biological target: Neu5Gc(a2-3)Gal(b1-4)Glc
# How it was run: as §1
# [10] = biological target: Neu5Gc(a2-3)Gal(b1-4)GlcNAc
# How it was run: as §1
# [11] = biological target: Neu5Gc(a2-3)Gal(b1-4)[Fuc(a1-3)]GlcNAc
# How it was run: as §1
# [12] = biological target: Neu5Gc(a2-6)Gal(b1-4)GlcNAc
# How it was run: as §1
# Neu5Gc(a2-6)GalNAc = biological target: Neu5Gc(a2-6)GalNAc
# How it was run: as §1
binder,measurement,setting,value
B1,glycan array binding signal (z-score),[1],-0.407
same,glycan array binding signal (z-score),[2],-0.385
same,glycan array binding signal (z-score),[3],-0.364
same,glycan array binding signal (z-score),[4],-0.444
same,glycan array binding signal (z-score),[5],-0.352
same,glycan array binding signal (z-score),Neu5Ac(b1-6)GalNAc,0.044
same,glycan array binding signal (z-score),[6],-0.473
same,glycan array binding signal (z-score),[7],-0.533
same,glycan array binding signal (z-score),[8],-0.469
same,glycan array binding signal (z-score),[9],-0.192
same,glycan array binding signal (z-score),Neu5Gc(a2-3)Gal(b1-4)Glc,-0.472
same,glycan array binding signal (z-score),[10],-0.461
same,glycan array binding signal (z-score),[11],-0.455
same,glycan array binding signal (z-score),[12],-0.5
same,glycan array binding signal (z-score),Neu5Gc(a2-6)GalNAc,0.239
